T1: GST-hRad9 (human, UniProt Q99638 1-391)
T1 sequence (looked up): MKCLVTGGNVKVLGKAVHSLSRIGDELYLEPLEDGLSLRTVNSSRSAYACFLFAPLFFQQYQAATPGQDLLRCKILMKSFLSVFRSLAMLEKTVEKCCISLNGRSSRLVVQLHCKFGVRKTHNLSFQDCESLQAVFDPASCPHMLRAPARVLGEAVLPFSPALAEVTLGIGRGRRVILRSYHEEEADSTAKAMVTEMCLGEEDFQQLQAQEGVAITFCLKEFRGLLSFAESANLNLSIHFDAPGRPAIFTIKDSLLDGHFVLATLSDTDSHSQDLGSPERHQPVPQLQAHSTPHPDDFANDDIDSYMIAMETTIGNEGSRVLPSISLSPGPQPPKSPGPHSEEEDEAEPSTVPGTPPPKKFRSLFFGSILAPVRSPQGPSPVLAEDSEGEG


Molecular target: T1, GST-hRad9
Experiment: pull-down

Row | binding result | Binder
1 | binds | processed intact hNEIL1 ([…]) (enzyme) not shown
2 | binds | hNEIL1-CΔ40 ([…]) (domain or fragment) not shown

From publication PMC1885643 (Nucleic Acids Research, 2007)
